From PubChem BioAssay AID1645887 (National Center for Advancing Translational Sciences (NCATS), 2021)
Where “and” joins values, the source holds several entries; their conditions need not be identical. Identical values can stand only once. The campaign covered roughly 16,000 compounds. About 40 (0.2%) were called active. About 1% were inconclusive and are not listed. Calls come from the whole dose curve; as a rule, active = well fitted activation curve with a large enough effect; inconclusive = small, poorly fitted or top-dose-only effect, or another doubt; inactive = no such curve, though single readings can be large or run the other way. Some of the results follow.

Target: Rap guanine nucleotide exchange factor 4 (Homo sapiens) (UniProt Q8WZA2)
Experiment: Validation qHTS for agonist of cAMP-regulated guanine nucleotide exchange factor 4 (EPAC2);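 note: exchange makes BODIPY-GDP fluorescence drop when released from Rap1B; series mostly up to about 150 µM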
Conditions: EPAC2 Rap1B BODIPY-GDP exchange, fluorescence; activation: hits give high values
Procedure, shortened: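 Fluorescent exchange assay: 100 nM EPAC2 with 250 nM RAP1B-BODIPY-GDP and 50 uM GDP; compound added, 5 min at room temperature, then read (ex 480/em 540 nm) every 5 min for 30 min. Normalized to 6.5 mM cAMP agonist control.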
% is set by controls: 0 for no effect and ±100 for the full control effect.

Chain of UniProt Q8WZA2 (Q8WZA2 whole entry, looked up): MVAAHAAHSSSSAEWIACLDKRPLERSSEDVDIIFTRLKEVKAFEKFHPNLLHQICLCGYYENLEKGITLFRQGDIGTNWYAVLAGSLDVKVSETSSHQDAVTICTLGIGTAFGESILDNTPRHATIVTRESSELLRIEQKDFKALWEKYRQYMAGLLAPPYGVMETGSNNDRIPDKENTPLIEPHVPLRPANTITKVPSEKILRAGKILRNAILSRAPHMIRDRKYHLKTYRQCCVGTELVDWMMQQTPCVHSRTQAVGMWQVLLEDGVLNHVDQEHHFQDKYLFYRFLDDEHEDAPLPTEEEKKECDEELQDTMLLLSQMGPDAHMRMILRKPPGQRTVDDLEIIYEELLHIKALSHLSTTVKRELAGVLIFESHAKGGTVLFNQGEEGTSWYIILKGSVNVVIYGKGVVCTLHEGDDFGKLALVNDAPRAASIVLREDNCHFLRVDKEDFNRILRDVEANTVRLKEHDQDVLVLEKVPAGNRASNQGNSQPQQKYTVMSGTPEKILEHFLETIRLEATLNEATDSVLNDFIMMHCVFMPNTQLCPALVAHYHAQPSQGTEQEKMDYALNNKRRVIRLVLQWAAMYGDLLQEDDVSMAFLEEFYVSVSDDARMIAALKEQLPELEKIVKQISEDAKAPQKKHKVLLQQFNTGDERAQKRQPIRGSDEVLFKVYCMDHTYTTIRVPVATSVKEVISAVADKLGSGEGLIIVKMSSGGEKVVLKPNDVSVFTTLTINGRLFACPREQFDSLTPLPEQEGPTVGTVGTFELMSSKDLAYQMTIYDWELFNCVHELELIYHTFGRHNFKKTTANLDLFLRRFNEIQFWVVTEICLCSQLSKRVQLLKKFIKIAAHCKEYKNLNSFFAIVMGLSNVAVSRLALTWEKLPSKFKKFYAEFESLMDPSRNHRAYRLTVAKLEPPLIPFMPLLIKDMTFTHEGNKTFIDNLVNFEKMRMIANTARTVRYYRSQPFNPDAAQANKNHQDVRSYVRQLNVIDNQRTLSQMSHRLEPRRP

activation, inactive:
Cc1cc(CNC(=O)c2cnn(-c3ncc4c(n3)-c3ccccc3CCC4)c2C2CC2)on1 -16.4%, Cn1cccc1C(=O)N1CCC[C@@]2(CCN(C(=O)Nc3cccc(C#N)c3)C2)C1 8.76%, COC(=O)N1CCC2(CC1)CN(C(=O)Nc1ccccc1)C2 -0.285%, COc1ccc(Oc2ncc3ncc(=O)n(-c4ccc(OC)cc4)c3n2)cc1 -8.14%, O=C1Cc2cc(CCN3CCN(c4nsc5ccccc45)CC3)c(Cl)cc2N1 -25.8% and -8.5%, CO[C@H]1C=CO[C@@]2(C)Oc3c(C)c(O)c4c(O)c(c5c(nc6cc(C)ccn65)c4c3C2=O)NC(=O)/C(C)=C\C=C[C@H](C)[C@H](O)[C@@H](C)[C@@H](O)[C@@H](C)[C@H](OC(C)=O)[C@@H]1C -43.9%, OC[C@H]1O[C@@H]2O[C@H]3[C@H](O)[C@@H](O)[C@@H](O[C@H]4[C@H](O)[C@@H](O)[C@@H](O[C@H]5[C@H](O)[C@@H](O)[C@@H](O[C@H]6[C@H](O)[C@@H](O)[C@@H](O[C@H]7[C@H](O)[C@@H](O)[C@@H](O[C@H]8[C@H](O)[C@@H](O)[C@@H](O[C@H]1[C@H](O)[C@H]2O)O[C@@H]8CO)O[C@@H]7CO)O[C@@H]6CO)O[C@@H]5CO)O[C@@H]4CO)O[C@@H]3CO -46.1%, O=c1c(-c2ccccc2)nc2cncnc2n1Cc1ccc(F)cc1 -7.11%, Cc1cc(C)n2nc(C(=O)NCC3Cc4cccc(-c5ccc(S(C)(=O)=O)cc5)c4O3)cc2n1 (configuration not stated) 2.37%, COc1ccc(-c2cc(C)cc3c2OC(CNC(=O)/C=C/c2ccncc2)C3)nn1 (configuration not stated) -19.9%, OCCN1CCN(Cc2ccc3c(c2)CN(Cc2cnc(-c4ccccc4)s2)CCO3)CC1 -15%, O=C(CS(=O)Cc1ccco1)NCC=CCOc1cc(CN2CCCCC2)ccn1 (configuration not stated) -6.18%, CN(C)c1ccc(-c2cc(NCc3ccccc3)ncn2)cc1 -4.8%, O=c1cc(-c2ccc(O)c(O)c2)oc2cc(O)cc(O)c12 -3.66% and -35%, C=CC(C)=C[C@@]1(C)SC(=O)C(C)=C1O -18.4%, CC(=O)Nc1ccc(NC(=S)NC(=O)c2ccc(C(C)(C)C)cc2)cc1 -4.58%, O=C1CCN(Cc2ccc(O)cc2)CCN1[C@H](CO)Cc1ccccc1 -28.7%, O=C(c1cnn(-c2nccc(-c3ccccc3F)n2)c1C1CC1)N1CCCCC1c1cccnc1 (configuration not stated) -1.84%, CN1CC(=O)NC1=N 7.23%, O=C1C(c2[nH]c3ccc(S(=O)(=O)O)cc3c2O)=Nc2ccc(S(=O)(=O)O)cc21 8.08% and -10.3% and -4.72%, CS(=O)(=O)Nc1cccc(-c2nc(N3CCOCC3)c3ccccc3n2)c1 -12.7%, Cc1c(C)c2c(c(C)c1OC(=O)CCC(=O)OCCO)CC[C@@](C)(CCC[C@H](C)CCC[C@H](C)CCCC(C)C)O2 -46.6%, CCOC(=O)Cc1cccc(-c2cc(CCCCCCc3ccc(O[C@H]4O[C@H](COC(C)=O)[C@@H](OC(C)=O)[C@H](OC(C)=O)[C@@H]4OC(C)=O)c(-c4cccc(CC(=O)OCC)c4)c3)ccc2O[C@H]2O[C@H](COC(C)=O)[C@@H](OC(C)=O)[C@H](OC(C)=O)[C@@H]2OC(C)=O)c1 -16%, O=S1(=O)CCOC[C@H](c2ccccc2)N1Cc1ccccc1 -18.9%, Cc1ccccc1-c1ccc2ncnc(N3CCOCC3)c2c1 -1.43%, CC(C)(C(=O)c1cccnc1)c1cccnc1 2.74%, C[C@@H](c1ncncc1F)C(O)(Cn1cncn1)c1ccc(F)cc1F (some centres not stated) -1.04%, NCCCCNCCCN -3.68% and 0.0336% and -24.4%, Cc1cc[n+](C2CCCCC2)cc1 -33.2%, Nc1ncn([C@H]2C[C@H](O)[C@@H](CO)O2)c(=O)n1 -7.9%, Cc1ncc2c(c1O)COP(=O)(O)OC2 -19.6%, N#CCCn1c(=O)c(-c2ccc(Cl)cc2)nc2cnc(Nc3ccccc3)nc21 15.6%, CCOC(=O)c1ccc(-c2c(-c3ccc4c(c3)OCO4)noc2C)cc1F -5.12%, CNC(CC(=O)O)C(=O)O (configuration not stated) -3.61%, O=C(c1csnn1)N1CCC[C@@]2(CCN(c3ccccc3)C2)C1 3.5%, O=C(c1ccco1)N1CCC2(CCN(Cc3cc(C(F)(F)F)cc(C(F)(F)F)c3)CC2)CC1 -16.1%, CC(=O)OCCNC(=O)c1cccnc1 0.295%, COc1cccc(-c2nccc(NCc3ccc(OC)cc3OC)n2)c1 8.43%, CN(C)c1ccc(O)c2c1C[C@H]1C[C@H]3[C@H](N(C)C)C(=O)C(C(N)=O)=C(O)[C@@]3(O)C(=O)C1=C2O -29% and 9.09% and -33%, CN1CCc2cccc3c2[C@H]1Cc1ccc(O)c(O)c1-3 -5.41% and -3.14%, COCc1c(C(=O)NC2CCCC2)cnn1-c1nccc(-c2cc(C)sc2C)n1 -14.3%, CCC(Cc1c(I)cc(I)c(N)c1I)C(=O)O (configuration not stated) -14% and -5.33%, CCC(NC(C)C)C(O)c1ccc(O)c(O)c1 (configuration not stated) -1.63% and -25.2%, CO[C@H]1[C@H](NC(=O)c2ccco2)c2ccccc2C12CCN(Cc1cccn1-c1ccccn1)CC2 -1.37%, CCCCC/C=C\CCC(=O)N[C@H]1[C@H](Oc2c3cc4cc2Oc2ccc(cc2Cl)[C@@H](O[C@@H]2O[C@H](CO)[C@@H](O)[C@H](O)[C@H]2NC(C)=O)[C@@H]2NC(=O)[C@H](NC(=O)[C@@H]4NC(=O)[C@H]4NC(=O)[C@@H](Cc5ccc(c(Cl)c5)O3)NC(=O)[C@H](N)c3ccc(O)c(c3)Oc3cc(O)cc4c3)c3ccc(O)c(c3)-c3c(O[C@H]4O[C@H](CO)[C@@H](O)[C@H](O)[C@@H]4O)cc(O)cc3[C@@H](C(=O)O)NC2=O)O[C@H](CO)[C@@H](O)[C@@H]1O -57%, COc1ncc2nc(-c3ccccc3)c(=O)n(Cc3cccs3)c2n1 -5.03%, COC(=O)[C@H]1C2CC3c4[nH]c5ccccc5c4CCN3CC2CC[C@@H]1O (some centres not stated) 8.97%, COc1c2ccoc2nc2c(OC)c(O[C@@H]3O[C@H](C)[C@@H](O)[C@@H](O)[C@H]3O)ccc12 -7.65%, COc1cc(CNS(=O)(=O)CCl)cc(OC)c1OC -2.68%, CCCC(=O)O 1.29%, CN1CCN(C2=Cc3ccccc3Oc3ccc(Cl)cc32)CC1 -0.86% and -5.76%, N=C(C[C@@H](O)COc1ccccc1-c1ccccc1)N1CCCCC1 -6.93%, C[C@]12CC[C@@H]3c4ccc(O)cc4CC[C@H]3[C@@H]1CC[C@@H]2OC(=O)CCC1CCCC1 -18.4% and 3.27%, O=C(Nc1ccccc1)N1CCCC2(CCN(S(=O)(=O)c3ccccc3)CC2)C1 -30%, Cc1cc(-c2ccnc(-n3ncc(C(=O)NCC4CCCO4)c3C3CC3)n2)c(C)s1 (configuration not stated) -6.02%, COc1ccc(Oc2ncc3nc(C)c(=O)n(Cc4cccs4)c3n2)cc1 17%, OC1(c2cccnc2)CCN(Cc2ccc3c(c2)CN(Cc2cccc4nccnc24)CCO3)CC1 4.15%, COc1cccc(-c2nc(NCc3cccs3)c3ccccc3n2)c1 3.13%, Cn1nnnc1SCC1=C(C(=O)O)N2C(=O)C(NC(=O)C(OC=O)c3ccccc3)C2SC1 (configuration not stated) -7.04%, N=C(N)c1ccc(OCCCOc2ccc(C(=N)N)cc2)cc1 -3.81%, CC(N)=NCCCC[C@@H](N)C(=O)O -15%, COc1ccc2[nH]c(I)c(CCNC(C)=O)c2c1 -8.32% and -1.72%, O=C(Oc1ccccc1)N1CCC2(CC1)CN(c1ccncc1)C2 6.05%, Cc1ccccc1-c1nc(NC2CC2)c2ccccc2n1 -10%, Cn1cccc1C(=O)N1CCC2(CCN(C(=O)Nc3cccc(C#N)c3)CC2)CC1 -24.6%, CCCCCCc1ccc(N2C[C@H](Cc3ccccc3)[C@@H](CC(=O)NCc3ccc(OC)cc3)C2=O)cc1 -25.9%, CO[C@@]1(NC(=O)CSCC#N)C(=O)N2C(C(=O)O)=C(CSc3nnnn3C)CS[C@@H]21 0.319% and -7.43%, NS(=O)(=O)c1cc(-c2nn[nH]n2)c(NCc2cccs2)cc1Cl -17.2%, COc1cc2nc(N3CCCC(O)C3)c(CNCc3ccccc3C(F)(F)F)cc2c(OC)c1OC (configuration not stated) 6.54%, COc1ccc(-c2nc3cnc(N(C)C)nc3n(Cc3ccc(F)cc3)c2=O)cc1 -8.79%, COC(=O)[C@H](CC(C)C)N(Cc1ccccc1)S(=O)(=O)N(Cc1ccc(OC)cc1)[C@@H](CC(C)C)C(=O)OC -19.3%, O=C(CCn1c(=O)[nH]c2ccccc21)NCC1Cc2cc(Cl)cc(-c3ccncc3)c2O1 (configuration not stated) -9.7%
